Among the data in the RNAGym collection of RNA variant scans (doi:10.7554/elife.90254) are self-cleavage values, retold here.

The source gives no read counts; variants with many changes may rest on few reads.

B1: LINE1-mini (parent)
chain: GGCAGAGCUCAACACAGCGUGGCAAAGUGGCUGUGGCUAGACUGCC

Variants of B1 are the subject of this data set. In words: self-cleavage, relative activity (ratio to wild type); higher = more cleavage; in vitro, sequencing; the parent is a self-cleaving ribozyme.
With GGCAAAGCUCAACACAGCGUGGCAAAGUGGAUGAGUCUAGUCUGCC, the self-cleavage was 0.07. On to GGCAAAUCUCAACACAUCGUGGUAAAAAGGCUGUGGCUAGACUGCC, for which the self-cleavage was 0.15.

Take GGCAAAGCUCAACACAGCAUGGCAAAGUGGCUGUGGCUAAACAGCC: the self-cleavage is 0.04. For GGCAAAGCUCAACACAGCGUGGCAAAAUGGCUAUGGCUAGACUGGC, the self-cleavage amounted to 0.09.

With GGCAAAGCUCAACACAGCGUGGCAAACUGGUUGUGGCUAGACUGCC, the self-cleavage was 0.04. Regarding GGCAAAGCUCAACACAGCAUGGCCAAGUGGCUGUGGCUAGAAUGCC, the self-cleavage is 0.02. Then GGCAAAGCUCAACACAGUGUGGCAUAGUGGCUGUGGCUAGACUGCC, with 0.29; and GGCAAAGCUCAACACAGCGUGGCAAAGUGGGCGUUGCUAGACGGCC, with 0.

With GGCAAAUCUCAACACAGCGUGGCCAAGUGGCUGUAGCUAGACUGCC, the self-cleavage stood at 0.07.

With GGCAAAGCUCAACACAGCGUGAGAGAGUGGCCGUGGCUAGACUGCC, the self-cleavage was 0.01. On to GGCAAAACUCAACACAGCGUGGCAAAGCGGCUGUGGCUAGACUGCC, for which the self-cleavage was determined as 0.17. For GGCAAAGCUCAACACAGCGUAGCAAAGUGGCUGUGGCUAGUCUGCC, the self-cleavage came to 0.11. For the variant GGCAAAGCUCAACACAGCUUGGCAAAGUGGCUGUAGCUAGACUGCC, the self-cleavage was found to be 0.03. For GGCAAAGCUCAACACAUCGUGGGAAAGUGGCAGUGGCUAGACUGCC, the self-cleavage was found to be 0.06. Under GGCAAAGCUCAACACAACGUGGCAAAGUGGCUGUGGUUAGACUGCC stands 0.04; under GGCAAAGCUCAACACAGCUUGGCAAAGUGGCGGUGGCUAGACUGCC, 0.03; under GGCAAAGCUCAACACAGCGUGGGAAGGUGGCUGUGGGUAGACUUCC, 0.02. Under GGCAAAGCUCAACACACCGUGCCAAAGUGGCUGUGGCUAGACUGCC stands 0.05; under GGCAAAUCUCAACACAGCGUGGCAAAAUGGAUGUGGCUAGACUACC, 0.1; under GGCAAAGCUCAACACAGCUUGGCAAAGUGGCUGUGGGUCGACUGCC, 0.01. For the variant GGCAAAGCUCAACACACCGUGGCAAAGUGGCUUUGGCUAGACUGCC, the self-cleavage stood at 0.05. With GGCAAAACUCAACACAGCGUGACAAAGUGGCUGUGGCUAGACUGCC, the self-cleavage came to 0.3.

Take GGCAAAGCUCAACACAGCGUGUCUAAGUGCCAGUGGCCAGACUGCC: the self-cleavage is 0.02. Then GGCAAAACUCAACACAGCGUGGCAAAGUGGCUGUGGCUAGACUGGC, with 0.22; and GGCAAAGCUCAACACAGCGUGGCAAAAUGGCUGUGGCUAGACUACC, with 0.02; and GGCAAAGCUCAACACAGGGCGGCAAAGUGGCUGUGGGUAGACUAGC, with 0.

For the variant GGCAAAGCUCAACACAGCGUGGCAAAGUGGUUGAAGCUAGACUGCC, the self-cleavage worked out at 0.04.

Turning to GGCAAAGCUCAACACAGCUUGGCAACGUGGCUGUGGCUAGACUGCC, the self-cleavage is 0.07. Then GGCAAAGCUCAACACAGCGUGGUAAACUGUCUGUGGCUAGACUGCC, with 0.15; and GGCAAACCUCAACACAGCGUGGCAAGGUGGCUGUGGGUAGACUGUC, with 0.09. Take GGCAAAUCUGAGCACAGCGUGGCAAAGUGGCUGUGGCUAGACUGCC: the self-cleavage worked out at 0.04. Regarding GGCAAAGCUCAACACAGGGUGGCAAAGUGACUGUGGCUAGACUGCC, the self-cleavage turned out to be 0.33. Under GGCAAAGCUCAACACAUCGUGGCAAAGUGACUGUGGCUAGACUGCC stands 0.04. Turning to GGCAAAGCUCAACACAGUGUGGCAAAGUGGUUCUGUCUAGACUGCC, the self-cleavage came out at 0.2. As to GGCAAAGCUCAACACAGCGUAGCAAAGCUGCUGUUGGGAGACUGCC, the self-cleavage amounted to 0.01. In the case of GGCAAAGCUCAACACAGCGUGGCAAAAUGGCUGCGGCUAGACUGCC, the self-cleavage was found to be 0.08. For GGCAAAGCUCAACACACCGUGGCAAAGUGGGUGAGGCUAGACUGCC, the self-cleavage was found to be 0.04. Then GGCAAAGCUCAACACAGCGUGGCAAAAUAACUGUGGCUAGACUGCC, with 0.12. Then GGCAAAGCUCAACACAGCGUGUCUAAGUGGCUGUGGCUAGACUGCC, with 0.14. GGCAAAGCUCAACACAGCUUGUCAAAGUUGCUGUGGCUACCCUGCC: the self-cleavage was 0.04. Turning to GGCAAAUCUCAACACAGCGUGGCAAAGUGGCUGGGGCUAGACUGCC, the self-cleavage is 0.12. For the variant GGCAAACCUAAACACAGGGUGGCAAAGUGGCUUUGGCUAGACUGCC, the self-cleavage stood at 0.01. Consider GGCAAAGCUCAACACAGCGUGGCAAAGUGGAUGUGGCUAGAGUGCC, for which the self-cleavage came out at 0.02.

Regarding GGCAAAGCUCAACACAGCCUGGCAAAGUGGCUGGGGCUAGACUGCC, the self-cleavage came to 0.04.

For GGCAAAGCUCAACACAGCGUUGCAAAGUGGCUGUUGCUAGACUGCC, the self-cleavage stood at 0.17. For GGCAAAGCUCAACACAGCGUCGCAAAGUGGCUGUGGAUAGACAGCC, the self-cleavage turned out to be 0.04.

For GGCAAACAUCAACACAGCGUGGAAAAGUGGCUGUGGCUAGACUGCC, the self-cleavage was determined as 0.54. GGCAAAUCUCAACACAGCGUGGCAAAGUGGCUGUGGCUAGACUGUC: the self-cleavage is 0.14. In the case of GGCAAAGCUCAACACAACGUGGCAAAGUGGCUCUGGCUAGACUGGC, the self-cleavage stood at 0.01. Take GGCAAACCUCAACAUAGCGUGGCAAAGUGGCUGUUGCUAGAUUGCC: the self-cleavage was determined as 0.08.

For the variant GGCAAAGCUCAACACAGCUUGGCAAAGUGGCUGUGGCUAGACUGUC, the self-cleavage was determined as 0.07.

Turning to GGCAAAGCUCAACACAGCUUGGCAAAGUGGUUGUGGCUAGACUGCC, the self-cleavage came to 0.06.

In the case of GGCAAAACUCAACACAGCGUGGCAAAGUGGCUGUGGCUACACUGCC, the self-cleavage was 0.1. As for GGCAAAGCUCAACACAGCAUGGCAAAGUGGCUGUGGCCAGACUGCC, the self-cleavage was determined as 0.06. In the case of GGCAAAGCUCAACACAGCGUUGCAAAGUGGAUGUGGCUAGACUGCC, the self-cleavage came out at 0.08. Take GGCAAAGCUCAACACAGCGUGGCAAAGUGGGUCUGGCUAGACUGCC: the self-cleavage was 0.17. Then GGCAAAGCUCAACACAGCGUGGCAAAGUGGGUUUGGCUAGACUGCC, with 0.02. For the variant GGCAAAGCUCAACACAGCCUGGCAAAGUGGCUUAGGCUAGACUGCC, the self-cleavage is 0.04.

With GGCAAAGCUCAACACAGCGUGUCAAAGUGGCUGUAGCUAGACUGCC, the self-cleavage amounted to 0.16. Under GGCAAAGCUCAACACAGCGUGGGAAAGUGGAUGUGGCUAGACCGCC stands 0.05.

As to GGCAAAGCUCAACACAGCGUGGGAAAUUGGCUGUGGCUAGACUGCC, the self-cleavage was 0.12. GGCAAAGCUCAACACAGCGUGCCAAAGUGGAUGUGGCUAGACUGCA: the self-cleavage stood at 0.02. Under GGCAAAUCUCAACACAACGUGGCACAGUGGCUGUGGCUAGACUGCC stands 0.06. For the variant GGCAAAGCUCAACACAGCGUGGCAAAGUGGUUGCGGCGAGACUGCC, the self-cleavage turned out to be 0.02. Under GGCAAAGCUCAACACAGUGUGGCAAAGUGGCUGUGGCCAGACUGCC stands 0.07; under GGCAAAGCUCAACACAGCAUGGCAAAGUGGCUGUGGCUAGACUGGC, 0.03. For GGCAAAGCUCAACACAUCCUGGCAAAGCGGCUGUGGCUAGAAUGCC, the self-cleavage was determined as 0.1. Consider GGCAAACCUCAACACAGCGAGGCUAAUUGGUUGUGGCUAGACUGCC, for which the self-cleavage amounted to 0.07. Then GGCAAAGCUCAACACAGCGUCGCAAAGUCGCUGUGGCUAGACCGCC, with 0.01; and GGCAAAGCUCAACACAGCGUGGCAAAGUGGCUGUGGCUAGAAGGCC, with 0.02; and GGCAAAGCUCAACACAGCUUGGCAUAGUGGCUGUGGCUAGACUGUC, with 0.13. With GGCAAAGCUCAACACAACGUAGCUAAGUGGCUGUGGCUAGGCUGCU, the self-cleavage was found to be 0.11. Then GGCAAAGCUCAACACAACGUGGCGAAGUGGCUGUGGCUAGACUGCC, with 0.02; and GGCAAAUCUCAACACAGCGUGGCAAAGUGGCCGUGGCUAGACUGCC, with 0.19; and GGCAAACAUCAACACAGCGUGGCAAAGUGGCUGUGGCUAGACUGCC, with 1.36. For the variant GGCAAACCUCAACACAGCGUGCCAAAGUGGCUGUGGUUAGACAGCC, the self-cleavage worked out at 0.03. As for GGCAAAGCUCAACACAGCGUACCAACGUGGCUAUGGCUAGACUGCC, the self-cleavage was determined as 0.05. In the case of GGCAAAGCUCAACACAACGUGGCAAAGUGGCUGUGGCUAGAUUGCC, the self-cleavage is 0.02. Consider GGCAAAGCUCAACACAGGGUGGCAAAGUGGCUCCGGCUAGACUGCC, for which the self-cleavage is 0.04. On to GGCAAAGCUCAACACAGCGUAGCAAAGUGGCUCUGGCUAAACUGCC, for which the self-cleavage turned out to be 0.11. As for GGCAAAGCUCAACACAGGGUGGAAAAGUGGCUGUGGCUAGACUGCC, the self-cleavage was 0.1. For the variant GGCAAAACUCAACACAGCGUGGCGAAGUGGCUGUGGCUAGACUGCC, the self-cleavage came out at 0.35. Under GGCAAAGCUCAACACAGUGUGGCAAAGUGGUUUUGGCUAGACUGCC stands 0.03. Consider GGCAAAGCUCAACACAGCCUGGCAGAGUGGCUGAGGUUAGACUGCC, for which the self-cleavage came to 0.03. Regarding GGCAAAGCUCAACACAGCGUGACAAAGUGGCUGAGGCUAGACUGCC, the self-cleavage worked out at 0.11. Then GGCAAAGCUCAACACACCGUGGCAAAGUGGCUGUGGCUAAACUGCC, with 0.06; and GGCAAAGCUCAACACAGCGUGGCAAACUGGCUGAGGGUAGACUGCG, with 0.02. In the case of GGCAAAGCUCAACACAGGGUGGCAAAGUGGCUAUGGCUAGACUGUC, the self-cleavage came out at 0.1.

Consider GGCAAAACUCAAGACAGCGUGGCAAAGUGGCUGUGGCUAGACUGCC, for which the self-cleavage amounted to 0.07. For the variant GGCAAAACUCAACACAGCGUGGCAAAGUGGCAGUGGCUAGACUGUC, the self-cleavage was determined as 0.12.

Consider GGCAAAGCUCAACACAGUGUGGCAAAGUGGCUGUGAGUAGACUGCC, for which the self-cleavage was 0.15. GGCAAAGCUCAACACAGCGUGGUAAAGUGGCUGGGGCUAGACAGCC: the self-cleavage amounted to 0.05.

In the case of GGCAAAUCUCAACACAGCGUGGCAAAGUCGCUGUGGCUAGACUGCC, the self-cleavage is 0.05. On to GGCAAAGCUCAACACAGUGUGGCAAAGUGGCUGUUGCUAGAAUGCC, for which the self-cleavage is 0.04. Then GGCAAAACUCAACACAGCGUGGCAAAGUGGCUGUGGCUAGAGUGCC, with 0.02; and GGCAAAGCUCAACACAGCGUGACAAAGUGGCUGUGGCUAGACUUCC, with 0.08. Then GGCAAAGCUCAACACAGCGUGGAAAAGUGGCUGUGGCUAGAUUGCC, with 2.49; and GGCAAACGUCAACACAGCGUGGCAACGUGGCUGUGGCUAGACUUCC, with 0.03; and GGCAAAGCUCAACACAGCGUGGGAAAGUGGCUGUGUCUAGACGGCC, with 0.04. Under GGCAAAGCUCAACACAGCGUGGAAACGUGGCUGUGGCUAGACUGCC stands 0.06; under GGCAAAGCUCAACACAGCAUGGCAAAGUGGCUUUGGCUAGACUGCC, 0.13; under GGCAAACCUCAACACAGCGUGGCUAAGUGCCUGUGGCUCGUCUGCA, 0.02. For GGCAAAGCUCAACACAGCGUUGCAAAGUGGCUGUGGCUGGACUGCC, the self-cleavage turned out to be 0.02. Turning to GGCAAAGCUCAACACAACGUGGCAAAGUGGCUGUCGCUAAAGUGCC, the self-cleavage was 0.04. Then GGCAAAGCUCAACACAGCUUGGCAAAGUGGCUGUGGCUAGACCGCC, with 0.17; and GGCAAAGCUCAACACAGCGUGCCAAAGUGGCUGUGGCAAGACUGCC, with 0.09.

As for GGCAAAGCUCAACACAGCGUGGAAAAGUUGCUGUGGCUAGACUGCC, the self-cleavage turned out to be 0.26. Take GGCAAAGCUCAACACAGCGUGGAAGAGUGGCUGUGGCUAGACUGCC: the self-cleavage was found to be 0.16. As for GGCAAAGCUCAACACAGCGUGGCAAAAUGGCUGUGGUUAGACUGCC, the self-cleavage amounted to 0.48.

GGCAAAGCUCAACACAGCAUGGCAAAAUGGCUGUGGCUAGACUGCC: the self-cleavage came out at 0.08. Consider GGCAAAGCUCAACACAGCCUGGCAAAGUGGCUGUGACUAGACUGCC, for which the self-cleavage stood at 0.41. As for GGCAAAGCUCAACACAGCGUGGUAAAGUGGCUGUGGCUAGAGUGCC, the self-cleavage turned out to be 0.05.
